In PubChem BioAssay AID504832 (National Center for Advancing Translational Sciences (NCATS), 2011):
The whole screen tested about 310,000 compounds, of which about 18,000 (5.8%) were called active. The inconclusive results got no clear call from the source; some entries with a clear call stand among them for comparison. The call rests on the fitted dose curve; in most records, active means well fitted inhibition curve with a large enough effect; inconclusive means small, poorly fitted or top-dose-only effect, or another doubt; inactive means no such curve, though single readings can be large or run the other way. Potencies of inconclusive entries are left out as doubtful fits.
On the % scale 0 is the no-effect control and ±100 the full control effect; potency means the concentration at half of the fitted maximal effect; tags describe the fitted curve by direction and shape.

Assay: Primary qHTS for delayed death inhibitors of the malarial parasite plastid, 48 hour incubation
Conditions: P. falciparum luciferase growth in erythrocytes; series mostly up to 28.7 µM; activity change, negative = inhibition: at the top concentration
Summary of the method: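 Luciferase-expressing parasites in RBCs, 2% Hct / 0.1% parasitemia final; RPMI 1640 + 0.5% Albumax; 37 C, 5% CO2, one generation; luminescence read-out, lower signal = inhibition.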
In the case of CCN1CCN(c2cc(C)c3cc(NC(=O)Cc4ccc(OC)c(OC)c4)ccc3n2)CC1, the Potency is reported as inconclusive [inhibitor, partial curve, poor fit].
For CC(C)Sc1nnc(-c2ccc(S(=O)(=O)N3CCOCC3)cc2)n1C, the Potency was inconclusive [inhibitor, partial curve, poor fit].
For CCn1ccnc1CNC(=O)CC1C(=O)NCCN1Cc1ccc(F)cc1Cl (centres undefined), the Potency was inconclusive [inhibitor, single point].
For COc1cccc(NC(=O)CCSc2nnc3scc(-c4ccccc4)n23)c1, the Potency was inconclusive [inhibitor, partial curve].
In the case of Cc1cc(NC(=O)COC(=O)C2CC2)ccc1Br, the “activity change, negative = inhibition” value is reported as inactive: -6.99%.
In the case of Cc1ccccc1C(=O)Nc1ccccc1N1CCCCC1, the Potency is reported as inconclusive [inhibitor, single point].
With Cc1nn(C(=O)CCC(=O)NCc2cccc(F)c2)c2ccccc12 the “activity change, negative = inhibition” value was inactive: 15.4%.
In the case of COc1cccc(CNC(=O)CCC2CCCN(C(=O)c3cc(C4CC4)[nH]n3)C2)c1 (centres undefined), the “activity change, negative = inhibition” value is reported as inactive: 56.9%.
With COC(=O)/C=C1\N/C(=N\c2nc(C)cc(C)n2)N(c2ccc(C)cc2)C1=O the Potency was inconclusive [inhibitor, single point].
For Cc1cc(-c2ccccc2)nc(N/N=C/c2cccnc2)n1, the “activity change, negative = inhibition” value was inactive: 28.1%.
In the case of Cc1ccc(C(=O)NC2CC(C)(C)NC(C)(C)C2)cc1C, the Potency is reported as inconclusive [inhibitor, partial curve, poor fit].
With O=C(CN1C(=O)NC2(CCCCCC2)C1=O)N1CCN(c2ccc(F)cc2)CC1 the Potency was inconclusive [inhibitor, partial curve, poor fit].
In the case of CCOc1ccc(C(=O)N2CCN(S(=O)(=O)c3ccc4c(c3)OCCO4)CC2)cc1OCC, the Potency is reported as inconclusive [inhibitor, single point].
In the case of COc1ccc2nc(-c3ccccc3)cc(C(=O)N3CCC3)c2c1, the Potency is reported as inconclusive [inhibitor, single point].
With COC(=O)/C(=C/c1c[nH]c2ccccc12)[N+](=O)[O-] the Potency was inconclusive [inhibitor, full curve, poor fit].
In the case of O=C(CCN1C(=O)/C(=C\c2ccc(F)cc2)SC1=S)Nc1ccc(O)cc1, the “activity change, negative = inhibition” value is reported as inactive: 12.6%.
In the case of COc1ccc(OC)c(S(=O)(=O)N2CCC(NC(=O)c3ccccc3)CC2)c1, the Potency is reported as inconclusive [inhibitor, partial curve].
With CN(CC(=O)Nc1cccc(S(=O)(=O)N2CCCCC2)c1)Cc1ccc(F)cc1 the Potency was active: 13.1 µM.
For CCOC(=O)c1c(N)sc2c(OCC)c(Br)ccc12, the “activity change, negative = inhibition” value was inactive: -21%.
In the case of Cn1c(=O)n(Cc2ccccc2Br)c2ccccc21, the “activity change, negative = inhibition” value is reported as inactive: -16.9%.
For CC(=O)c1ccc(NC(=O)C(Cc2ccccc2)NC(=O)c2ccco2)cc1 (centres undefined), the Potency was inconclusive [inhibitor, full curve, poor fit].
In the case of CC(C)CN(C(=O)CC(C)c1ccccc1)c1c(N)n(Cc2ccccc2)c(=O)[nH]c1=O (centres undefined), the Potency is reported as inconclusive [inhibitor, partial curve, poor fit].
In the case of Cc1cc(NC(=O)CCCSc2nc(-c3ccco3)cc(C(F)(F)F)n2)no1, the “activity change, negative = inhibition” value is reported as inactive: -4.5%.
For O=C(COc1ccc(Cl)cc1)Nc1cccc(-c2ccc3nncn3n2)c1, the Potency was inconclusive [inhibitor, partial curve, poor fit].
For CCCCn1c(N)c(N(CCOC)C(=O)c2c(C)noc2C)c(=O)[nH]c1=O, the “activity change, negative = inhibition” value was inactive: 0%.
In the case of Cc1ccc2nc(N(CCCN(C)C)C(=O)c3cc4ccccc4oc3=O)sc2c1, the Potency is reported as inconclusive [inhibitor, partial curve].
In the case of CCC1=NN=C(c2ccc(F)cc2)C(c2c[nH]c3ccccc23)N1O (centres undefined), the Potency is reported as inconclusive [inhibitor, single point].
In the case of COc1cc(/C=N/NC(=O)c2ccc(CN3C(=O)c4cccc5cccc3c45)cc2)cc(OC)c1O, the Potency is reported as active: 8.28 µM.
With CCCn1c2c(c(O)c(C(=O)Nc3ccc(OCC)cc3)c1=O)CCCC2 the Potency was inconclusive [inhibitor, single point].
For CC1CCN(C(=O)CSc2n[nH]c(-c3cccs3)n2)CC1, the “activity change, negative = inhibition” value was inactive: 8.45%.
In the case of CCOC(=O)C(C)Sc1nc2c(c(-c3cccs3)c1C#N)CCC2 (centres undefined), the Potency is reported as inconclusive [inhibitor, partial curve, poor fit].
With Cc1ccc(C)n1-n1c(C)nc2scc(-c3ccccc3)c2c1=O the Potency was inconclusive [inhibitor, single point].
In the case of CC(=O)c1sc(-c2ccc(F)cc2F)nc1C, the “activity change, negative = inhibition” value is reported as inactive: 33%.
In the case of CC1CCCN(C(=O)c2cn(-c3ccccc3)nc2-c2cccnc2)C1 (centres undefined), the Potency is reported as inconclusive [inhibitor, single point].
For COc1ccc(NC(=O)CNc2ccccc2N2CCCC2=O)cc1S(=O)(=O)N1CCOCC1, the Potency was inconclusive [inhibitor, single point].
For O=C(O)/C=C/c1ccc(S(=O)(=O)N2CCN(CCN3C(=O)C4C5C=CC(C5)C4C3=O)CC2)cc1 (centres undefined), the Potency was inconclusive [inhibitor, partial curve].
With S=c1[nH]nc(-c2ccc3ccccc3n2)n1-c1ccc(Cl)cc1 the “activity change, negative = inhibition” value was inactive: 6.91%.
With Cc1ccc(C)c(OCCn2cc(/C=C(\C#N)C(=O)NCc3cccs3)c3ccccc32)c1 the Potency was active: 4.65 µM.
For c1ccc2oc(-c3ccn[nH]3)cc2c1, the “activity change, negative = inhibition” value was inactive: 111%.
In the case of Cc1ccccc1NC(=O)Cc1nc(COC(=O)c2cc([N+](=O)[O-])ccc2NCCO)cs1, the Potency is reported as inconclusive [inhibitor, single point].
In the case of Cc1cs/c(=N\N=C\c2ccc(O)cc2)n1Cc1ccco1, the Potency is reported as inconclusive [inhibitor, single point].
For COc1ccc(N2CCN(C(=O)C(=O)c3cn(CC(=O)N4CCCCCC4)c4ccccc34)CC2)cc1, the Potency was inconclusive [inhibitor, single point].
With CCC(c1nnnn1C1CCCC1)N1CCN(c2ccccc2F)CC1 (centres undefined) the Potency was inconclusive [inhibitor, single point].
For Cc1cc(C)cc(-n2c(C)cc(/C=N/NC(=O)CN(c3c(C)cccc3C)S(C)(=O)=O)c2C)c1, the Potency was inconclusive [inhibitor, single point].
With CCc1ccc(S(=O)(=O)NCCOc2cccc3cccnc23)cc1 the Potency was inconclusive [inhibitor, single point].
With COc1ccc(C)cc1NC(=S)Nc1ccccc1SC the Potency was inconclusive [inhibitor, partial curve, poor fit].
For CCCCN1C(=O)C(NC(C)=O)c2cc(Br)ccc21 (centres undefined), the Potency was inconclusive [inhibitor, single point].
For O=C(Nc1cccc(C(=O)N2CCCc3ccccc32)c1)c1ccccc1, the Potency was inconclusive [inhibitor, partial curve, poor fit].
In the case of COc1ccc(C2C(C(=O)N3CCN(c4ccccc4F)CC3)c3ccccc3C(=O)N2C)cc1 (centres undefined), the Potency is reported as inconclusive [inhibitor, single point].
In the case of O=C(COc1ccc(Br)cc1)N1CCN(C2CCCC2)CC1, the “activity change, negative = inhibition” value is reported as inactive: 14.9%.
For CC(C)(C)OC(=O)c1c(N)n(CCCN2CCCC2=O)c2nc3ccccc3nc12, the Potency was inconclusive [inhibitor, single point].
In the case of C=CCn1c(C)cc(C(=O)COC(=O)/C=C/c2cccc(OC)c2)c1C, the “activity change, negative = inhibition” value is reported as inactive: -5.19%.
For COc1ccc(-c2cc(C(=O)N3CC(C)CC(C)C3)c3ccccc3n2)cc1OC (centres undefined), the Potency was inconclusive [inhibitor, partial curve, poor fit].
In the case of CCCN1CCN(C(=O)c2cc(COc3ccc(F)cc3F)on2)CC1, the “activity change, negative = inhibition” value is reported as inactive: 30.8%.
For CC(C(=O)OCC(=O)N1CCN(c2ccccc2)CC1)N1C(=O)c2ccccc2C1=O (centres undefined), the “activity change, negative = inhibition” value was inactive: -8.89%.
In the case of CC(=O)N(C)c1ccc(NC(=O)/C=C/c2ccccc2Cl)cc1, the Potency is reported as inconclusive [inhibitor, partial curve].
For CN(C)c1ccc(/C=N/NC(=O)CN(c2cccc(Cl)c2)S(C)(=O)=O)cc1Br, the Potency was active: 13.1 µM.
In the case of Cc1ccc(-n2ccnc2SCC(=O)N(CC(C)C)C2CCS(=O)(=O)C2)c(C)c1 (centres undefined), the Potency is reported as inconclusive [inhibitor, partial curve, poor fit].
In the case of CCc1ccccc1N1CC(C(=O)Nc2nccs2)CC1=O (centres undefined), the “activity change, negative = inhibition” value is reported as inactive: 18.9%.
With CN(C)Cc1nc2ccccc2c(=O)n1Cc1nc(-c2cc3ccccc3o2)cs1 the Potency was inconclusive [inhibitor, single point].
With Nn1c(-c2ccc(F)cc2)nc2ccccc2c1=O the “activity change, negative = inhibition” value was inactive: 29.3%.
In the case of CCn1c(SCC(=O)Nc2nc3ccc(OC)cc3s2)nnc1-c1ccoc1C, the Potency is reported as inconclusive [inhibitor, single point].
For Cc1ccc(NC2CCCN(C(=O)CCN3CCCCO3)C2)cc1C (centres undefined), the “activity change, negative = inhibition” value was inactive: 2.98%.
With CCc1cccc(Nc2c3c(nc4ncnn24)CCC3)c1 the Potency was inconclusive [inhibitor, single point].
With CC(C)(C)NC[C@@H](O)COc1ccccc1C1CCCC1 the Potency was active: 2.87 µM.
In the case of CCCC(=O)c1cc2c(cc1NC(=O)c1ccccc1F)OCCO2, the Potency is reported as inconclusive [inhibitor, full curve, poor fit].
With CS(=O)(=O)c1cccc(C(=O)Nc2ccc(-c3nc4ccccc4[nH]3)cc2)c1 the Potency was inconclusive [inhibitor, full curve, poor fit].
With Cc1ccc(CCNC(=O)C(C)n2nc(C)c3c(C)n(-c4ccccc4)nc3c2=O)cc1 (centres undefined) the “activity change, negative = inhibition” value was inactive: -13.8%.
For CCN(c1ccccc1)S(=O)(=O)c1ccc(C(=O)Nc2nnc(CSC)o2)cc1, the Potency was inconclusive [inhibitor, full curve, poor fit].
